Test results published in the supplement of paper PMC9446081.
Hit rate of the full screen: of about 39,000 compounds, about 220 (0.56%) showed activity. The list shows a part of the results.
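Note: static incubation at 37 °C against the wild-type strain, values averaged over two biological replicates.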

These molecules were tested on Escherichia coli K-12 BW25113 (assay: relative growth (OD600 normalised to plate interquartile mean) (fraction); higher = less growth inhibition, active = 0.2 or less). Settings: 50 µM; LB; incubation time: overnight (16-24 h).
With `CCc1ccc(/C=C2\SC(=O)N(CCCCCCNC(=O)c3ccc(Nc4ccc([N+](=O)[O-])c5nonc45)cc3)C2=O)cc1` the relative growth was inactive: 1.05.
For `COc1ccc(CNC(=O)C[C@H]2C[C@H]3c4cc(NC(=O)NC5CCCC5)ccc4O[C@H]3[C@H](CO)O2)cc1`, the relative growth was inactive: 0.99.
With `C[C@@H]1CN([C@H](C)CO)C(=O)c2cc(NC(=O)Nc3ccc(C(F)(F)F)cc3)ccc2O[C@@H]1CN(C)Cc1ccc(Oc2ccccc2)cc1` the relative growth was inactive: 0.993.
With `COc1cccc(S(=O)(=O)Nc2ccc3c(c2)OC[C@@H](C)N(C(=O)Cc2cccnc2)C[C@@H](C)[C@H](OC)CN(C)C3=O)c1` the relative growth was inactive: 1.01.
In the case of `COc1ccccc1CNC(=O)C[C@@H]1C[C@@H]2c3cc(NC(=O)c4cccnc4)ccc3O[C@@H]2[C@@H](CO)O1`, the relative growth is reported as inactive: 0.941.
For `Cc1noc(C)c1NC(=O)Nc1ccc2c(c1)C(=O)N([C@H](C)CO)C[C@@H](C)[C@@H](CN(C)S(=O)(=O)c1c(C)noc1C)O2`, the relative growth was inactive: 1.01.
In the case of `C[C@H]1CN([C@@H](C)CO)C(=O)c2cc(NC(=O)Nc3ccccc3)ccc2O[C@@H]1CN(C)C(=O)Nc1cccc2ccccc12`, the relative growth is reported as inactive: 0.969.
For `c1ccc(Cn2c(-c3ccc(OC[C@H](C4CCNCC4)n4c(-c5ccccc5)nc5ccccc54)cc3)nc3ccccc32)cc1`, the relative growth was inactive: 0.723.
In the case of `C[C@@H]1CN([C@H](C)CO)C(=O)c2cc(NC(=O)CCC(F)(F)F)ccc2O[C@@H]1CN(C)Cc1ccc(C(F)(F)F)cc1`, the relative growth is reported as inactive: 0.977.
In the case of `C[C@H](CO)N1C[C@H](C)[C@H](CN(C)Cc2ccc(-c3ccccc3)cc2)Oc2ccc(NC(=O)Nc3ccccc3)cc2C1=O`, the relative growth is reported as inactive: 0.991.
For `Cc1ccc(S(=O)(=O)N(C)C[C@@H]2Oc3ccc(NS(=O)(=O)c4ccccc4)cc3C(=O)N([C@H](C)CO)C[C@@H]2C)cc1`, the relative growth was inactive: 1.01.
With `CCn1c(C)cn2c3c(=O)n(CCN4CCOCC4)c(=O)n(C)c3nc12` the relative growth was inactive: 1.02.
For `C[C@H](CO)N1C[C@H](C)[C@H](CN(C)CC2CCOCC2)Oc2cc(C#Cc3ccccc3F)ccc2S1(=O)=O`, the relative growth was inactive: 1.01.
For `Cc1noc(C)c1S(=O)(=O)Nc1cccc2c1O[C@H](CN(C)S(=O)(=O)c1ccccc1)[C@H](C)CN([C@@H](C)CO)C2=O`, the relative growth was inactive: 1.02.
With `C[C@H](CO)N1C[C@H](C)[C@@H](CN(C)C(=O)Cc2ccncc2)Oc2cc(C#CC3CCCC3)ccc2S1(=O)=O` the relative growth was inactive: 0.958.
`CS(=O)(=O)c1ccc(C#N)cc1` was tested, and the relative growth was inactive: 1.01.
With `COc1ccc(NC(=O)N(C)C[C@H]2OCCCC[C@@H](C)Oc3ccc(NC(=O)CCC(F)(F)F)cc3C(=O)N([C@@H](C)CO)C[C@@H]2C)cc1` the relative growth was inactive: 1.01.
`Cc1noc(C)c1NC(=O)Nc1ccc2c(c1)C(=O)N([C@@H](C)CO)C[C@H](C)[C@H](CN(C)C(=O)C1CCCCC1)OCCCC[C@@H](C)O2` was tested, and the relative growth was inactive: 0.961.
For `CNC(=O)C[C@H]1CC[C@@H]2[C@H](COC[C@@H](O)CN2C(=O)c2ccccn2)O1`, the relative growth was inactive: 0.993.
`CC(=O)N(C)C[C@H]1Oc2ncc(C#C[C@@H](C)O)cc2C(=O)N([C@@H](C)CO)C[C@H]1C` was tested, and the relative growth was inactive: 1.02.
In the case of `C[C@H](CO)N1C[C@H](C)[C@H](CN(C)C(=O)Cc2ccccc2)Oc2cc(-c3cncnc3)ccc2S1(=O)=O`, the relative growth is reported as inactive: 1.02.
With `CN(C)C(=O)c1cccc(-c2cccc(-c3nc(C(=O)NC4CCCCC4)cc4c3[C@@H](CCO)N([S@](=O)C(C)(C)C)C4)c2)c1` the relative growth was inactive: 1.02.
`CC(C)NC(=O)Nc1ccc2c(c1)CC(=O)N([C@@H](C)CO)C[C@H](C)[C@H](CN(C)Cc1ccc3c(c1)OCO3)O2` was tested, and the relative growth was inactive: 0.997.
For `Cc1c(C)n2c3c(=O)n(C)c(=O)n(C)c3nc2n1CCO`, the relative growth was inactive: 1.01.
With `CN(C)C(CCOc1cccc2ccccc12)c1ccccc1.Cl` (centres undefined) the relative growth was inactive: 0.686.
For `Cc1ccc(S(=O)(=O)NCC[C@H]2CC[C@H](NS(=O)(=O)c3ccccc3Cl)[C@@H](CO)O2)cc1`, the relative growth was inactive: 1.03.
For `CC(C)NC(=O)Nc1ccc2c(c1)CC(=O)N([C@@H](C)CO)C[C@H](C)[C@H](CN(C)S(=O)(=O)c1cccs1)O2`, the relative growth was inactive: 1.03.
`c1ccc(CNc2ccc3c(ccc4c5ccccc5[nH]c34)n2)cc1` was tested, and the relative growth was inactive: 0.99.
For `Cc1ccc(S(=O)(=O)N(C)C[C@@H]2Oc3ccc(N(C)C)cc3CC(=O)N([C@@H](C)CO)C[C@@H]2C)cc1`, the relative growth was inactive: 1.02.
For `COc1ccc(S(=O)(=O)N2C[C@H](O)COC[C@H]3O[C@@H](CC(=O)NCc4ccc(Cl)c(Cl)c4)CC[C@@H]32)cc1`, the relative growth was inactive: 1.01.
For `COc1ccc(S(=O)(=O)Nc2ccc3c(c2)C(=O)N([C@H](C)CO)C[C@@H](C)[C@H](CN(C)C(=O)Nc2ccccc2)OCCCC[C@@H](C)O3)cc1`, the relative growth was inactive: 1.
For `C[C@H]1CN([C@@H](C)CO)C(=O)c2cccc(NS(=O)(=O)c3ccc(Cl)cc3)c2O[C@H]1CN(C)S(C)(=O)=O`, the relative growth was inactive: 1.01.
For `Cc1noc(C)c1NC(=O)N[C@@H]1CC[C@H](CC(=O)N2CCN(C)CC2)O[C@H]1CO`, the relative growth was inactive: 1.03.
For `C[C@H]1CN([C@@H](C)CO)C(=O)c2cc(NC(=O)Cc3ccccc3)ccc2O[C@@H]1CN(C)S(C)(=O)=O`, the relative growth was inactive: 0.975.
With `Cc1cccc(S(=O)(=O)N2C[C@H](O)COC[C@@H]3O[C@H](CC(=O)NCCCN4CCOCC4)CC[C@H]32)c1` the relative growth was inactive: 1.
In the case of `COc1ccc(NC(=O)N(C)C[C@@H]2Oc3ccc(NC(=O)Nc4ccc(C(F)(F)F)cc4)cc3C(=O)N([C@@H](C)CO)C[C@H]2C)cc1`, the relative growth is reported as inactive: 1.03.
With `C[C@H]1CN([C@@H](C)CO)C(=O)c2cccc(NC(=O)Nc3ccc4c(c3)OCO4)c2O[C@@H]1CN(C)C(=O)Nc1cccc2ccccc12` the relative growth was inactive: 0.976.
`CC(C)NC(=O)Nc1ccc2c(c1)C(=O)N([C@@H](C)CO)C[C@H](C)[C@@H](CN(C)Cc1ccc(C(=O)O)cc1)O2` was tested, and the relative growth was inactive: 1.01.
With `COCC#Cc1ccc2c(c1)O[C@@H](CN(C)C(=O)C1CCOCC1)[C@@H](C)CN([C@@H](C)CO)S2(=O)=O` the relative growth was inactive: 1.
